Our source for the percent labeling values is PubChem BioAssay AID2202238 (Ras Initiative Chemistry Research Team, Frederick National …, 2025).

For the assay, the target named is GTPase KRas (Homo sapiens) (UniProt P01116). The assay can be described thus: Covalent labelling of cysteine mutants by fragments, read by mass spectrometry (AID 2202238). More on the design: protein at 5 µM with 500 µM competing thiol for 1.5 h. The note with it: KRAS G12D cysteine mutants, disulfide tethering, MALDI-TOF labeling, stronger effect = higher value, fragment at 500 µM.
UniProt P01116, sequence (P01116 whole entry, looked up, the tested form may be a part): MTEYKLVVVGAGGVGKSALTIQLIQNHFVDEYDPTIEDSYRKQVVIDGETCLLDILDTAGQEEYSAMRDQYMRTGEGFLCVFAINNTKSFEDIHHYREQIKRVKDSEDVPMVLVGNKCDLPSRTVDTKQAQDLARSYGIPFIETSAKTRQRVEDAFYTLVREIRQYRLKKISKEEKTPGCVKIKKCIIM

[1] abbreviates: measured here: G75C mutant labeling.
The mark [2] stands for this setting: measured here: H94C mutant labeling.
Setting [3] is: measured here: I36C mutant labeling.
[4] abbreviates: measured here: L120C mutant labeling.
The mark [5] stands for this setting: measured here: M67C mutant labeling.
[6] abbreviates: measured here: M72C mutant labeling.
[7] abbreviates: measured here: N86C mutant labeling.
The mark [8] stands for this setting: measured here: P121C mutant labeling.
[9] abbreviates: measured here: S122C mutant labeling.
Where [10] appears, read: measured here: S136C mutant labeling.
The mark [11] stands for this setting: measured here: G60C mutant labeling.
Where [12] appears, read: measured here: N26C mutant labeling.

The list shows a part of the results. Further columns of the screen follow, without active or inactive calls.

In the case of `O=C(CCS)Nc1c(-c2ccccc2)[nH][nH]c1=O`, the percent labeling by setting is: under setting [1], 9.3%; under setting [2], 26.4%; under setting [3], 22.8%; under setting [4], 38.8%; under setting [5], 26.8%; under setting [6], 20.8%. Besides, the percent labeling runs as follows: under setting [7], 17.3%; under setting [8], 31.6%; under setting [9], 33.3%; under setting [10], 48.3%.
Regarding `O=C(NCCS)C(CC1CCCO1)C(F)(F)F` (stereo not drawn), the percent labeling is, setting by setting: under setting [11], 26.6%; under setting [1], 11%; under setting [2], 31.4%; under setting [3], 21.9%; under setting [4], 31.9%; under setting [5], 30.4%. In addition, the percent labeling worked out at 19.7% under setting [6]; 25.5% under setting [12]; 32.4% under setting [7]; 30.8% under setting [8]; 31.4% under setting [9]; 38.9% under setting [10].
Regarding `CCOc1ccc(NC(=O)CCS)c2ncccc12`, the percent labeling amounted to 11.4% under setting [1]; 9.7% under setting [2]; 18.1% under setting [3]; 14.5% under setting [4]; 12.4% under setting [5]; 31.4% under setting [6]. In addition, the percent labeling under setting [7] stood at 12.6%, the percent labeling under setting [8] is 10.7%, the percent labeling under setting [9] was 14% and the percent labeling under setting [10] was 21.2%.
Consider `O=C(NCCS)c1cc(-c2cnc3[nH]ccc3c2)ccn1`, for which the percent labeling reads like this: under setting [11], 18.6%; under setting [1], 11.2%; under setting [2], 14.2%; under setting [3], 8.5%; under setting [4], 16.3%; under setting [5], 11.7%. Besides, the percent labeling turned out to be 52.7% under setting [6]; 30.1% under setting [12]; 10.6% under setting [7]; 12% under setting [8]; 8.4% under setting [9]; 11.7% under setting [10].
With `Cc1cc(CNC(=O)CCS)ccc1Oc1ccc(F)cc1`, the percent labeling was 13.5% under setting [1]; 41.9% under setting [2]; 22.1% under setting [3]; 18.1% under setting [4]; 23.5% under setting [5]; 46.3% under setting [6]. Further, the percent labeling runs as follows: under setting [7], 17%; under setting [8], 23.2%; under setting [9], 10.2%; under setting [10], 30.6%.
On to `O=C(NCCS)c1cn(CC2CCOC2)nn1` (stereo not drawn), for which the percent labeling is, setting by setting: under setting [11], 22.1%; under setting [1], 16.3%; under setting [2], 30.4%; under setting [3], 25.9%; under setting [4], 41%; under setting [5], 27.7%. Also, the percent labeling by setting is: under setting [6], 35.8%; under setting [12], 39.7%; under setting [7], 23%; under setting [8], 32.3%; under setting [9], 29.9%; under setting [10], 47.6%.
Consider `Cc1c([C@H]2[C@H](C(=O)NCCS)CC(=O)N2C2CC2)cnn1C`, for which the percent labeling reads like this: under setting [11], 27.7%; under setting [1], 9.1%; under setting [2], 30.4%; under setting [3], 27.2%; under setting [4], 24%; under setting [5], 33.1%. Besides, the percent labeling by setting is: under setting [6], 17.2%; under setting [12], 29.7%; under setting [7], 16.1%; under setting [8], 30.5%; under setting [9], 23.6%; under setting [10], 31.9%.
As for `O=C(NCCS)c1cccc(NC(=O)c2ccc3nc[nH]c3c2)c1`, the percent labeling was 25% under setting [11]; 14.4% under setting [1]; 13.7% under setting [2]; 8.1% under setting [3]; 14.4% under setting [4]; 11.1% under setting [5]. Also, the percent labeling reads like this: under setting [6], 34.1%; under setting [12], 39.1%; under setting [7], 11%; under setting [8], 8.7%; under setting [9], 6.6%; under setting [10], 13.2%.
As for `O=C(CCc1nc2ccccc2n1-c1ccccc1)NCCS`, the percent labeling under setting [11] was 42.5%; the percent labeling under setting [1] stood at 19.9%; the percent labeling under setting [2] came out at 37.7%; the percent labeling under setting [3] was determined as 19.6%; the percent labeling under setting [4] was found to be 21.8%; the percent labeling under setting [5] stood at 27.2%. This compound yielded a percent labeling under setting [6] of 26.8%; a percent labeling under setting [12] of 31.7%; a percent labeling under setting [7] of 17.7%; a percent labeling under setting [8] of 18%; a percent labeling under setting [9] of 14.3%; a percent labeling under setting [10] of 40.6%.
For `O=C(Cn1nc(-c2ccccc2)ccc1=O)NCCS`, the percent labeling came out at 38.4% under setting [11]; 19.3% under setting [1]; 35.2% under setting [2]; 25.2% under setting [3]; 47.1% under setting [4]; 49.3% under setting [5]. The percent labeling worked out at 39.9% under setting [6]; 42.6% under setting [12]; 24.5% under setting [7]; 32.9% under setting [8]; 27.9% under setting [9]; 50% under setting [10].
For the compound `Cc1nc2nc(C(=O)NCCS)cc(C(C)(C)C)n2n1`, the percent labeling reads like this: under setting [11], 37.3%; under setting [1], 20.7%; under setting [2], 27.8%; under setting [3], 20.4%; under setting [4], 33.4%; under setting [5], 25.5%. For the same compound, the percent labeling turned out to be 58.2% under setting [6]; 37.5% under setting [12]; 17.2% under setting [7]; 21.8% under setting [8]; 19.5% under setting [9]; 48.6% under setting [10].
Consider `O=C(NCCS)c1cnc(C2CCCO2)s1` (stereo not drawn), for which the percent labeling by setting is: under setting [11], 12.5%; under setting [1], 6.8%; under setting [2], 10.3%; under setting [3], 10.6%; under setting [4], 13.1%; under setting [5], 15.1%. Further, the percent labeling reads like this: under setting [6], 14.7%; under setting [12], 22.2%; under setting [7], 6.1%; under setting [8], 10.7%; under setting [9], 16.9%; under setting [10], 26.2%.
For `O=C(CCS)NCC1CN(Cc2ccccc2)Cc2nccn2C1` (stereo not drawn), the percent labeling by setting is: under setting [1], 19.1%; under setting [2], 26.5%; under setting [3], 38.6%; under setting [4], 20%; under setting [5], 48.7%; under setting [6], 21.6%. In addition, the percent labeling was 20.7% under setting [7], 29.2% under setting [8], 24.3% under setting [9] and 51.9% under setting [10].
